Data: the supplement of paper PMC5499739
Whole data set: some 16,000 sequences, median “Z-score” near -0.37, cut for the highest 2% near 3.1. This is one part of the list.

The sequences below were run on RBM10 RRM1-ZnF-RRM2 (GST-tagged construct) (assay: RNAcompete 7-mer binding Z-score; higher = stronger binding preference).
Summary of the method: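 A designed pool of 241 399 RNAs, each up to 41 nt and transcribed from microarray-derived DNA templates, was used at 1.5 nmol with 20 pmol of GST-tagged RBM10 constructs. The mixture, in 1 ml Hepes pH 7.8 buffer with KCl, NaCl, glycerol, DTT, BSA and glutathione Sepharose beads, was held 30 min at 4°C and then washed four times for 2 min at 4°C. Bound RNA was read out by microarray hybridisation, and enrichment of each heptamer motif was scored as a one-sided Z-score over the probes carrying it.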

Sequence	RNAcompete 7-mer binding Z-score
GAUGCUU	-0.792
AUGUACG	0.323
GGUUCUG	0.221
GUGAGAC	1.04
AAUCCUU	-0.821
UCGGUGC	0.162
GUGGUGC	1.68
AUGCAGG	1.55
UACGGGG	2.8
CCGUAAC	-0.519
GCGACGU	0.162
CAUCAAA	-0.686
UUCUUCA	-0.828
GCCAAUU	-0.606
AUAGGCC	0.133
CGUUACG	-0.253
GGAGUCG	1.6
GCUACGA	-0.5
AUGCGUC	-0.566
UGCUAAG	-0.282
CGUCUCU	-0.672
GCUUCAU	-0.744
GAUAACA	0.184
CGGCAAC	-0.264
UCUAUCA	-0.715

Sequence	RNAcompete 7-mer binding Z-score
CUUUUCG	-0.97
CGCUAUA	-0.551
GUAGAAC	0.556
UGCACGC	-0.486
CCCCCUC	-0.548
GCUCAGU	-0.573
AGACGAA	0.505
CGAUGGU	0.894
UCUAACU	-0.697
GAACAGU	0.0859
AUACUCC	-0.865
AAUGUAU	-0.14
UAACCCC	-0.573
AAGAGUG	1.37
UGCUAGU	-0.511
CCCCGAA	-0.592
UAAUCUC	-0.719
UUUUCGG	-0.267
GCUAAUG	-0.103
UUGGAGA	1.11
AUUCGUU	-0.562
UGGAUAC	1.45
UCCCAAG	-0.551
GUGCGGC	0.833
AUUUGCC	-0.897

Sequence	RNAcompete 7-mer binding Z-score
GCGCUUC	-0.726
CCGGUAA	0.0896
GUUACCG	0.0131
UCCGGCC	-0.763
AAUUGGG	2.6
UAGUGAA	0.691
CCACCGG	-0.322
UGCGUUC	-0.646
ACGACUG	-0.402
UACACUC	-0.595
GUAGCCC	-0.442
AUCUUGG	-0.311
GUUCAUU	-0.424
UCGGAGU	0.257
AGGACUG	0.304
GAGUACU	-0.296
UUGCCAG	-0.479
UGGUUUU	0.443
GAGCUUC	-0.715
CGCCCAG	-0.632
UCCCGCG	-0.632
CCCUCGG	-0.511
AGCCCGU	-0.941
UCGGUUG	0.286
GGUCCUA	-0.468

Sequence	RNAcompete 7-mer binding Z-score
UUCCGCA	-0.788
ACCUCAU	-0.73
UCAUUAA	-0.3
AGCAGGC	0.807
CAGAAGA	0.159
GUACAGC	0.304
GGUAAUG	2.79
CAAAAAA	-0.293
UUAAUGC	-0.697
CGCAGAA	0.162
UCUGAUC	-0.876
ACAAGCU	-0.639
UCGGUCA	-0.46
CGCCUCG	-0.635
GUAAGGA	3.28
CGCUUCG	-0.697
GCGAUGG	2.03
CACUGAU	-0.632
CGAUUCU	-0.836
AGCUCUA	-0.744
UUGGCGG	1.48
AUUGCGC	-0.439
GUGAUUA	0.275
CGUCAAU	-0.599
CUACAGA	-0.723

Sequence	RNAcompete 7-mer binding Z-score
AGUGUGG	2.64
UUCUAUU	-0.821
CACACCC	-0.697
GUGGCUG	0.72
CGGAAUG	1.33
UCGAGUC	-0.431
UCCUGGG	0.341
UCUGUCC	-0.81
GAAGGGA	4.75
CCAGUUG	-0.653
UCCGUUC	-0.73
AGUGGGU	3.35
GGUUGAC	1.02
CCUACAA	-0.774
AAGCUCC	-0.741
UCCUUAA	-0.715
CGUGCUG	-0.26
CUAUAGA	-0.577
AGGCUAG	0.406
UAAUAGU	-0.0925
AGCUGAU	-0.227
UCGUUAA	-0.566
GCAAUUC	-0.457
UACCGCU	-0.843
GAUGGUA	2.46

Sequence	RNAcompete 7-mer binding Z-score
CAGGAGA	2.02
CCCGAGA	-0.57
GAACAAA	0.235
AUAUGGA	1.68
GCACUUG	-0.581
ACCAAAG	0.0422
AUGUGAC	0.239
CGUAAGA	-0.5
CUCGAUG	-0.435
GAGGCCA	0.0495
CACGCGU	-0.311
AUUCGCU	-0.817
CUACAAA	-0.664
GGCUACC	-0.213
GAACCGC	-0.635
CAGCUUA	-0.741
UGAUGAA	0.111
CCCACAC	-0.672
CUUAAGC	-0.89
CUGGUCU	-0.551
GUUCUAG	-0.358
GGCGAUU	0.385
CUGUGAC	-0.599
GCAUAGG	1.89
UUGGUUA	0.352

Sequence	RNAcompete 7-mer binding Z-score
UCCUGUU	-0.73
AAGCCAC	-0.5
CCUAGUG	-0.355
CCUUGUC	-0.89
GAGAUUC	-0.246
UGCUCGC	-0.613
AGUGGGC	2.96
GCCGCAU	-0.639
AUCAUCA	-0.519
CCGAAUU	-0.766
UGGGAAG	3.99
GACUUGC	-0.887
AGCAGUU	-0.198
AUGAUUU	-0.668
GGUCAUU	0.232
GGAUCUA	-0.271
AUCUACC	-0.843
AGUCGCC	-0.402
UCACAAC	-0.592
GCGGAGU	1.32
ACCAGUA	-0.391
CUAUACA	-0.555
GUAUGAC	0.0896
AGGAUUA	0.712
UGCUAGC	-0.57

Sequence	RNAcompete 7-mer binding Z-score
AAGGGAA	4.17
AAGGGGC	3.1
CAGAAAA	-0.0306
GACCCCU	-0.872
GCUUCAA	-0.573
GGAGGCU	1.29
GACAUGC	-0.322
CCCGCUG	-0.675
CCUCUGG	-0.53
UCAGGUU	0.235
AUGGGUU	2.86
ACAGGGC	2.36
GGGCAAA	2.09
GAUCCAC	-0.639
AGCUCCA	-0.726
GCGAGAA	0.643
CGUCCUC	-0.861
CCCAACA	-0.675
AGGCAUG	0.793
UAAAAUC	-0.694
UACAGGC	0.403
UUACGAA	-0.337
GUGGGUC	2.4
GGUGAUG	2.52
UUUCUUG	-0.723

Sequence	RNAcompete 7-mer binding Z-score
UCCUAGC	-0.792
CAAGAUA	-0.333
GACAGCA	0.272
CGUGGAC	1.17
AACUAGC	-0.373
AUUUUUG	-0.602
GAGGAAA	2.2
GAACUUG	-0.366
UUCUCAC	-0.726
CCCGCUU	-0.876
CGAUUGA	-0.286
CUGGACU	-0.515
AUUUAUU	-0.69
AAACCUA	-0.613
ACAGAUU	-0.242
AUUGAAG	0.326
UCGCAAA	-0.646
CUCCCUU	-0.879
AGACGUA	-0.162
AUUUUUC	-0.817
GAUGAAU	0.585
UCCAGGA	0.472
AAUACUA	-0.544
UUAGUAC	-0.479
AGAAAGC	-0.122

Sequence	RNAcompete 7-mer binding Z-score
GGCGUUU	0.0386
CGGAUAG	1.59
CCACCUG	-0.726
UACUUCA	-0.719
AUACCUU	-0.897
UGCCUUC	-0.814
CGAUUUC	-0.788
CAGGUCC	-0.165
UCCAGUG	-0.224
GGGGCCC	0.315
GGCAUAC	0.162
UAAUCCU	-0.901
UGCCGCA	-0.562
ACGAAUG	0.144
CUGAGGC	-0.0743
CUCCCGU	-0.613
GAUCUUC	-0.755
GGGUAGA	3.84
AAUAAGA	0.0568
GCCAGCG	-0.0343
UCAAUGA	0.0349
GUAUGAA	0.355
GAUCCGC	-0.821
AAGGAUG	3.89
GCCACUG	-0.555

Sequence	RNAcompete 7-mer binding Z-score
UGUCAAC	-0.544
ACUCGAA	-0.504
GCACGCG	-0.0598
CCGCUGC	-0.482
GCCGUUG	-0.304
CGCCAUG	-0.628
UCCCUAU	-0.752
CUAAGUC	-0.573
AGAUGAC	0.0532
CGUGAAC	-0.42
GCGAUAG	0.811
CCUCUUU	-0.945
AACAACC	-0.69
GUCCCUG	-0.559
AUCUCUG	-0.846
CAGUAUG	0.17
AACGUCU	-0.599
GGAGUUG	2.56
UCGUUCA	-0.508
UGUAACU	-0.358
GUAGUGC	0.661
CGGGCAA	1.02
CCUGGUA	-0.566
AGUUACC	-0.304
GCCGCUU	-0.923

Sequence	RNAcompete 7-mer binding Z-score
GCACAUU	-0.409
UUCAUAU	-0.599
AGCCUAC	-0.919
CGCGCUC	-0.621
GAGAGUU	0.396
GGCGACU	0.425
CAGAUCC	-0.643
GUAUAAA	0.0969
AGGGCAG	2.3
UGAUAAA	-0.213
UCUCGCG	-0.679
CGGAGUA	1.22
ACCCACG	-0.551
GGACUCA	-0.00512
CUCACUC	-0.785
GCGCGCC	-0.351
GCGAGCG	2.99
CCAAGUA	-0.205
UUUGCUG	-0.679
GCCCUCC	-0.697
UAGUCGA	-0.278
GGCCCGG	-0.0197
AACGUGG	1.49
GCUAGUU	-0.537
AAUAGCA	-0.0925

Sequence	RNAcompete 7-mer binding Z-score
GAACGUU	-0.388
UAAUACU	-0.65
UAAAACA	-0.242
UGUCCGU	-0.602
UAGGUUC	0.217
UUUGGUA	0.137
ACUACCC	-0.934
AGGCACC	-0.384
UACACAG	-0.231
CCGAGCA	-0.49
UAAGCAG	0.461
UUAACAG	-0.22
AAGGCGU	1.67
UUGUCAG	-0.391
AACAGUU	-0.377
ACUUACU	-0.701
UUCAGGU	0.312
CAAUUCU	-0.788
AAAUCUC	-0.876
CUCAACU	-0.872
GACAUUG	0.224
ACGUUGC	-0.522
UUAGCUG	-0.541
CCCUUAC	-0.956
AAGAUCU	-0.635

Sequence	RNAcompete 7-mer binding Z-score
CAUGUUC	-0.646
ACCCAGG	-0.173
GGUUAGC	1.03
AGGGUAG	3.71
CUUAGCA	-0.668
ACACAGA	0.108
UCGUUAC	-0.57
UAUCGUU	-0.715
AAUAGAG	0.742
GUCCCUC	-0.712
UACUUUG	-0.781
GACUUGA	-0.606
AAAACGG	1.65
AUAGUCU	-0.581
GUAACAU	0.0641
AUCUGGG	0.479
UACGGAA	0.865
CCAUCCA	-0.679
AGUCAGG	1.24
GUGCGCC	-0.00877
UAUCGAU	-0.486
UGAUGCU	-0.581
GUUUUUA	-0.428
UCCAUAG	-0.581
AUAGUUC	-0.577

Sequence	RNAcompete 7-mer binding Z-score
CCGGCGU	-0.26
UCUUAGC	-0.817
CCUAAUA	-0.679
UGUGCCC	-0.675
UGGCAGA	1.25
AAUAUAA	-0.296
UCCGUUA	-0.774
GGGAGCG	3.23
GGUCUCU	-0.49
GCCUAUA	-0.744
CGAUCGG	0.355
AACUCUA	-0.927
CUCUUGG	-0.599
ACAUCAA	-0.344
ACCCCGU	-0.697
CACAUGC	-0.664
GUCGGAG	1.24
